Measured values as given in PubChem BioAssay AID1508624 (National Center for Advancing Translational Sciences (NCATS), 2021).
Among all 48,000 compounds or so, about 120 (0.25%) were called active. Roughly 4% stayed inconclusive and do not appear here. The call rests on the fitted dose curve; in most records, active means well fitted activation curve with a large enough effect; inconclusive means small, poorly fitted or top-dose-only effect, or another doubt; inactive means no such curve, though single readings can be large or run the other way. Some of the results follow.

Test: Primary qHTS for Identification of Small Molecule Activators of Huntingtin-Antisense Promoter Activity; further: nearly all actives have a fitted effect of over 55% in size
Conditions: HEK293 HTT-AS promoter firefly luciferase reporter (activity 0% = vehicle and -100% = no light), 24 h; series mostly up to 57.5 µM; activity change, positive = activation: at the top concentration
Procedure, shortened: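 Firefly luciferase readout (Dual-Glo, 10 min RT) after 24 h, 37 °C compound exposure (final up to 57.5 uM) of HEK293 reporter cells cultured 24 h beforehand; PTC124 at 50 uM final as control inhibitor; activity scaled vehicle 0%, zero RLU -100%.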

Row | Compound | activity change, positive = activation
1 | CCc1ccc(CN(Cc2cn[nH]c2-c2ccc(OC)cc2)C(=O)Nc2cc(Cl)ccc2OC)cc1 | inactive: -19.4%
2 | Cc1ccc(-n2ncc(C(=O)NCc3ccco3)c2C2CCN(C(=O)OC(C)(C)C)CC2)c(C)c1 | inactive: -10.1%
3 | CC(=O)c1ccc(N2C(=O)N(CC(=O)c3ccc(F)cc3)c3ccccc3S2(=O)=O)cc1 | inactive: -16.9%
4 | Cc1ccc(-n2ncc3c(NC4CCCCCC4)ncnc32)cc1Cl | inactive: -12.9%
5 | CCCCN(CCCNC(=O)c1cc(Nc2ccc(OC)c(OC)c2)nc2ccccc12)Cc1ccccc1 | inactive: -19.4%
6 | COc1ccc(S(=O)(=O)NCCc2csc(-c3ccc(F)cc3)n2)cc1F | inactive: -31.3%
7 | CCOC(=O)C1=C(C)N=C2SCCC(=O)N2C1c1ccc(OCc2ccccc2)cc1 (stereo unspecified) | inactive: -18.8%
8 | O=C(Nc1ccc(OC(F)(F)F)cc1)c1cc2ccccn2n1 | inactive: 20%
9 | O=c1nc2n(-c3ccccc3F)c3ccccc3cc-2c(=O)[nH]1 | inactive: 8.72%
10 | COc1cc(OC)c(Nc2nc3ccc(C(=O)c4ccccc4)cc3n3c(C)nnc23)cc1Cl | inactive: -2.35%
11 | CCCCn1cc2c(c1-c1ccc(Cl)cc1)c(=O)n(C)c(=O)n2C | inactive: -32.2%
12 | Cc1cc(C)cc(NS(=O)(=O)c2cc3c(cc2C)NC(=O)CO3)c1 | inactive: -19.3%
13 | CN1N=C(N)c2cn([C@@H]3O[C@H](COP(=O)(O)O)[C@@H](O)[C@@H]3O)c3ncnc1c23 | inactive: -15.9%
14 | CCOC(=O)c1c(NC(=O)c2ccc(S(=O)(=O)N(CC(C)C)CC(C)C)cc2)sc2c1CCN(C(=O)OCC)C2 | inactive: -6.13%
15 | CCC(=O)N(CCC(c1ccccc1)c1ccc2c(c1)OCO2)Cc1ccc(OC(C)C)cc1 (stereo unspecified) | inactive: -38.8%
16 | COc1ccc(NC(=O)CSc2nnc(-c3nonc3NC(C)=O)n2-c2ccccc2)cc1 | inactive: -13.9%
17 | COc1ccc(Cl)cc1NC(=O)c1sc2nc3n(c(=O)c2c1C)CCC3 | inactive: -10%
18 | CCCN(C(=O)Cn1cnc2onc(-c3ccc(F)cc3)c2c1=O)c1cccc(Cl)c1 | inactive: -33.5%
19 | Cc1cc(C)n(-c2nc3ccccc3nc2Nc2cccc(C)c2C)n1 | inactive: 4.25%
20 | CCOc1ccc(CCNS(=O)(=O)c2cc(Br)cc3c2N(C(C)=O)CC3)cc1OCC | inactive: -16.3%
21 | CCC(Sc1nc2ccccc2c(=O)n1CCc1ccc(OC)c(OC)c1)C(=O)N(CC)CC (stereo unspecified) | inactive: -42%
22 | CC(=O)OCC[N+](C)(C)C | inactive: -0.547%
23 | COc1cccc(N2CCN(C(=O)Cn3c(-c4cccs4)cc4ccccc43)CC2)c1 | inactive: -15%
24 | COc1ccc(CN2C(=O)c3ccccc3C2C(=O)NCCc2ccccc2)c(OC)c1 (stereo unspecified) | inactive: 3.92%
25 | CC(C)CCNC(=O)CN1N=C(c2ccc(Cl)cc2)CCC1=O | inactive: -13.7%
26 | CC1=C(C(=O)Nc2ccc(C)cc2C)C(c2cccs2)n2nc(SCc3ccccc3Cl)nc2N1 (stereo unspecified) | inactive: -7.94%
